Laboratory results as given in article PMC5426793.
Results are given in words; binding and its absence hold for the method and conditions named. Binding seen in cells or lysates may run through a third protein. Some results given as binding are weak or reduced against the parent protein; the word gives no strength.

The chains behind the UniProt entries cited, without tags or fusion partners. Where a name states a change or a piece, a line headed by the entry shows the natural chain unless it says otherwise.
UniProt O43791: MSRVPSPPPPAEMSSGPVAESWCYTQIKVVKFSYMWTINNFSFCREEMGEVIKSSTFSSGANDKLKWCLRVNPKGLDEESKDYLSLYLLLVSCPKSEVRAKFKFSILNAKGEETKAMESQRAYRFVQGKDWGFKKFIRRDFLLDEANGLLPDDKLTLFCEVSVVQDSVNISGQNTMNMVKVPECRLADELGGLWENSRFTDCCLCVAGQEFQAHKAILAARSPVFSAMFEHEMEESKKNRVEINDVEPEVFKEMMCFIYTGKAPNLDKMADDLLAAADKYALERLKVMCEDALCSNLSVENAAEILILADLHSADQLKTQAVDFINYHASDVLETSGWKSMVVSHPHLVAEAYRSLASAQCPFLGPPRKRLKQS
UniProt Q27J81: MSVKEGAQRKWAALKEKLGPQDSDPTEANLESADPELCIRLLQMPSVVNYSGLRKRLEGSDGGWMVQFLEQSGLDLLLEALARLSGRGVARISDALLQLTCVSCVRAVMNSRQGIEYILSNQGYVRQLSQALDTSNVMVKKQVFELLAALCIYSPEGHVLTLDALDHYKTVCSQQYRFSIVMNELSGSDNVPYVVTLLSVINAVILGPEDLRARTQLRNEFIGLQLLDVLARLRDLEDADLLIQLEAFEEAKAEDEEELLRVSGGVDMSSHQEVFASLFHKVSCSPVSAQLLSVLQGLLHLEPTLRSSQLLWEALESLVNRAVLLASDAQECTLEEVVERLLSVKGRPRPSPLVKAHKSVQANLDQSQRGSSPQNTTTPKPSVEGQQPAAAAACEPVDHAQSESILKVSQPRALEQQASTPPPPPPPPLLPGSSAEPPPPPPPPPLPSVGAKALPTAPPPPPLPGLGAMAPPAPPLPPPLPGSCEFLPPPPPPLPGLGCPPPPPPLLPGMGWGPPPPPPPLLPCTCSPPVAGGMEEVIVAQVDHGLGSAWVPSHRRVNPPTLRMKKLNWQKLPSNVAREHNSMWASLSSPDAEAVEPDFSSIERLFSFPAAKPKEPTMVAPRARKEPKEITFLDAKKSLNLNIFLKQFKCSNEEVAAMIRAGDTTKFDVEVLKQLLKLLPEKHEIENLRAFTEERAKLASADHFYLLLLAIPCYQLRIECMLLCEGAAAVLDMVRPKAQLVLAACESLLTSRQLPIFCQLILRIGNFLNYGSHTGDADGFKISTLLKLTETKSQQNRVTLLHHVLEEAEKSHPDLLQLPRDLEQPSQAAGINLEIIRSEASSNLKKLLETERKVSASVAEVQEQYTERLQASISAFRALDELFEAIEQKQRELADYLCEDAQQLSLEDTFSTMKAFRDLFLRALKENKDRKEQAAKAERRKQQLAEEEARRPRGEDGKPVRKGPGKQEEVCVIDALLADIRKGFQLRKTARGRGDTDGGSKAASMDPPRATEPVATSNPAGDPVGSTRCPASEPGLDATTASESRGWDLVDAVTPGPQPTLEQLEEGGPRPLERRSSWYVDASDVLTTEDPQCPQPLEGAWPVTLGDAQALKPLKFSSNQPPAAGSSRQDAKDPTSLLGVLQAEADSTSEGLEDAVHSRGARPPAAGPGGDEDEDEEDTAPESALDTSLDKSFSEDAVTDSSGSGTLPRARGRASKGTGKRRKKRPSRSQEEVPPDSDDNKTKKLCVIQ
UniProt O15131: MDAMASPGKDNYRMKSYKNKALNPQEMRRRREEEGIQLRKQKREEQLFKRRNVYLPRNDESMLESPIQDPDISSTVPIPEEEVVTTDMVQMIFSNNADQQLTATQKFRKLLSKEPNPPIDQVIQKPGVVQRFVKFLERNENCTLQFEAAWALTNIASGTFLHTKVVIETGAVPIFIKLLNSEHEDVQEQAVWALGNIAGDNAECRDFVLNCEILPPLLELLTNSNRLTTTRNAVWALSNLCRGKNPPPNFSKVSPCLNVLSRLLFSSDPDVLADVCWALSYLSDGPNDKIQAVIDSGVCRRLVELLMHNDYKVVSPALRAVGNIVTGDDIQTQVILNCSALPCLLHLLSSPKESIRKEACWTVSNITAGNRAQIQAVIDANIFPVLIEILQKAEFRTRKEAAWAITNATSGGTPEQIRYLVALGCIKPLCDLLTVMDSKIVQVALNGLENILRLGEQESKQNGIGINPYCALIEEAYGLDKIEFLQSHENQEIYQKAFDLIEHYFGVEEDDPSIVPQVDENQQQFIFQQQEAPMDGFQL
UniProt P10275: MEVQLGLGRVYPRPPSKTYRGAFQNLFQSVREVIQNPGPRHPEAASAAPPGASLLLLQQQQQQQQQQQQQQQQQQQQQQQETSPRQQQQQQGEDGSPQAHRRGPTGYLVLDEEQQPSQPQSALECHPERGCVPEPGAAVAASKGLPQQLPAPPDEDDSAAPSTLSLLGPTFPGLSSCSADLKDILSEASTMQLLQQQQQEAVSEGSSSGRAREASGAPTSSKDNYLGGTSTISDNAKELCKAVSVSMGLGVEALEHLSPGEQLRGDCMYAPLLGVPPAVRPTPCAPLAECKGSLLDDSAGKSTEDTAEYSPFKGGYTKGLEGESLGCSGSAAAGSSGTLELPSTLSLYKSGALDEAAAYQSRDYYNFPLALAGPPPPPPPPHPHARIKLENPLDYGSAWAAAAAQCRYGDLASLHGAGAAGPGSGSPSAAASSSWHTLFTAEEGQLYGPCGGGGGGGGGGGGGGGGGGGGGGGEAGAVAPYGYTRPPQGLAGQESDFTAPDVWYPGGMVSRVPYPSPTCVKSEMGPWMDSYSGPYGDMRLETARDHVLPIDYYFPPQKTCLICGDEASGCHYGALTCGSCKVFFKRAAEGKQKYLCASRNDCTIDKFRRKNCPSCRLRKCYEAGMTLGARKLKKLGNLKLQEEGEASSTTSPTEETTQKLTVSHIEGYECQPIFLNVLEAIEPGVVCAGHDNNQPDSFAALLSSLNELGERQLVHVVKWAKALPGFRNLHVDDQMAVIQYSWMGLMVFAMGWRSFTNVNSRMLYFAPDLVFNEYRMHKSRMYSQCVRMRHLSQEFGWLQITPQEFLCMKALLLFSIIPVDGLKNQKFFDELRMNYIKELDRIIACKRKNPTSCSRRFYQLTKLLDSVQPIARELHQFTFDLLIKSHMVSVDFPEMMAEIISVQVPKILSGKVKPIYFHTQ
UniProt P46940: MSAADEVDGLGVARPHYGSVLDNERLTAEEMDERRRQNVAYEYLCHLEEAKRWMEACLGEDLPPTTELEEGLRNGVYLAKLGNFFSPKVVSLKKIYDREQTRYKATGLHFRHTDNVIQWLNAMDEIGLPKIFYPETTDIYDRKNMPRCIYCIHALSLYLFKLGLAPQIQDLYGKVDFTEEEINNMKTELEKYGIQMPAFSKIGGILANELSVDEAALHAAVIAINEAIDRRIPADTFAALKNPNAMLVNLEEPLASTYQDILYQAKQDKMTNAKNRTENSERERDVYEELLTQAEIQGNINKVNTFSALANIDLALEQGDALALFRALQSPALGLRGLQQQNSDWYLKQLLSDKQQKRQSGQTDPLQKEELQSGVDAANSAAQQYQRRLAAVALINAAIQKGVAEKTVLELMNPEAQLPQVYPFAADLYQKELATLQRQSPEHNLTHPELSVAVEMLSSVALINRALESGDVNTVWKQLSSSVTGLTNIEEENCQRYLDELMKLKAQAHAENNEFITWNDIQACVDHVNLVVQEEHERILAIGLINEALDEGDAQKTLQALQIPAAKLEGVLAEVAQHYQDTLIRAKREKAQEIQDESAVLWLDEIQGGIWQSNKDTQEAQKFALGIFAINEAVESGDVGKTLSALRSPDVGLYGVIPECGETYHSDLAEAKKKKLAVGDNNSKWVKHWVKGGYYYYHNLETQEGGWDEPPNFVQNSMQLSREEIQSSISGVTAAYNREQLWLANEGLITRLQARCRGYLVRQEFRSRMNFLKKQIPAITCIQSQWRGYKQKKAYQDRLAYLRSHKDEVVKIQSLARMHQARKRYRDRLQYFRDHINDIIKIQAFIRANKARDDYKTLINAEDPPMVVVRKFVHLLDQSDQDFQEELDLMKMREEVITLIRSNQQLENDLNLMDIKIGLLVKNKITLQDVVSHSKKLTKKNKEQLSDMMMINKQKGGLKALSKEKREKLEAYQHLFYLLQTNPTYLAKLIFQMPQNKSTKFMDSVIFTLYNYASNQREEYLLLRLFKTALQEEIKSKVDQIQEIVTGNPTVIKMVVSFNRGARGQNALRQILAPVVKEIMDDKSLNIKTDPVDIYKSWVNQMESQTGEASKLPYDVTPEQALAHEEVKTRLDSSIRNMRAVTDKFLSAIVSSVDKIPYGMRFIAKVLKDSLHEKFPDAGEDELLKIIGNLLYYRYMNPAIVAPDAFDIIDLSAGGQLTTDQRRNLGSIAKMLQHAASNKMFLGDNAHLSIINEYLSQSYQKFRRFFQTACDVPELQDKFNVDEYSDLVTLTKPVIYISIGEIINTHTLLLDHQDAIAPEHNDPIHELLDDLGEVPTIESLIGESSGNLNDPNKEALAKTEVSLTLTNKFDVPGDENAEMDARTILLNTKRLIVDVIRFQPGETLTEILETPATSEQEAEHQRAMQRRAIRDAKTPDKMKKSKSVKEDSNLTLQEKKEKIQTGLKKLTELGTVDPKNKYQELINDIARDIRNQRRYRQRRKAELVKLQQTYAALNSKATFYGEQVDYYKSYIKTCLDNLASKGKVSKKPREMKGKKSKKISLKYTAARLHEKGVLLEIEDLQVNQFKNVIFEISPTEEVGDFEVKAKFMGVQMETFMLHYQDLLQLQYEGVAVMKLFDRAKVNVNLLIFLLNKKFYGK

How the values were obtained:
SPOP-F125V (S3D Fig) [1] = target: SPOP-F125V (S3D Fig) (UniProt O43791); experiment: co-IP; 293T cells co-transfected with the two plasmids; cell lysates precipitated with anti-FLAG antibody; Western blot
SPOP-F133L (S3D Fig) [2] = target: SPOP-F133L (S3D Fig) (UniProt O43791); experiment: as above
FLAG-SPOP [3] = target: FLAG-SPOP (UniProt O43791); experiment: as above
FLAG-INF2-CAAX [4] = target: FLAG-INF2-CAAX (UniProt Q27J81); experiment: as above
[5] = target: FLAG-SPOP (lentivirus, LNCaP) (UniProt O43791); experiment: co-IP; LNCaP cells infected with lentivirus expressing FLAG-SPOP or control, 20 μM MG132 for 8 h before harvesting; anti-FLAG antibody; endogenous partners by Western blot
FLAG-INF2-CAAX [6] = target: FLAG-INF2-CAAX (UniProt Q27J81); experiment: co-IP; 293T cells transfected with wild-type SPOP and INF2, with co-expressed SPOP mutant (Y87N, F125V or F133L); anti-FLAG antibody; Western blot
[7] = target: endogenous INF2 (LNCaP) (human (endogenous in LNCaP)) (UniProt Q27J81); experiment: co-IP; endogenous proteins, LNCaP cell lysates, IgG or anti-INF2 antibody; Western blot
FLAG-SPOP [8] = target: FLAG-SPOP (UniProt O43791); experiment: co-IP; reciprocal co-IP, 293T cells transfected with FLAG-SPOP and Myc-INF2; Western blot (legend: anti-Myc antibody)
SPOP-F125V (S3D Fig) [9] = target: SPOP-F125V (S3D Fig) (UniProt O43791); experiment: co-IP; 293T cells transfected with SPOP constructs; anti-FLAG antibody; endogenous KPNA5 by Western blot
SPOP-F133L (S3D Fig) [10] = target: SPOP-F133L (S3D Fig) (UniProt O43791); experiment: as above
FLAG-SPOP [11] = target: FLAG-SPOP (UniProt O43791); experiment: as above

binding (FLAG-INF2-CAAX [4]) | further results | Substance
 | binding (SPOP-F125V (S3D Fig) [1]): binds; binding (SPOP-F133L (S3D Fig) [2]): binds; binding (FLAG-SPOP [3]): binds | overexpressed KPNA5 (from UniProt O15131 1-539)
no binding |  | Myc-SPOP F102C (from UniProt O43791 1-374)
no binding |  | Myc-SPOP S119N (from UniProt O43791 1-374)
no binding |  | Myc-SPOP F125V (from UniProt O43791 1-374)
no binding |  | Myc-SPOP W131C (from UniProt O43791 1-374)
 | binding [5]: binds | androgen receptor (endogenous, LNCaP) (from UniProt P10275 1-920)
binds | binding (FLAG-INF2-CAAX [6]): binds | Myc-SPOP (from UniProt O43791 1-374)
no binding |  | Myc-SPOP Y87C (from UniProt O43791 1-374)
 | binding [7]: binds | IQGAP1 (endogenous, LNCaP) (from UniProt P46940 1-1657)
 | binding [5]: binds | endogenous INF2 (LNCaP) (from UniProt Q27J81 1-1249)
 | binding (FLAG-SPOP [8]): binds | Myc-INF2 (from UniProt Q27J81 1-1249)
no binding |  | Myc-SPOP K134N (from UniProt O43791 1-374)
no binding |  | Myc-SPOP Y87N (from UniProt O43791 1-374)
no binding |  | Myc-SPOP K129E (from UniProt O43791 1-374)
no binding |  | Myc-SPOP W131G (from UniProt O43791 1-374)
no binding |  | Myc-SPOP F133L (from UniProt O43791 1-374)
 | binding (SPOP-F125V (S3D Fig) [9]): binds; binding (SPOP-F133L (S3D Fig) [10]): binds; binding (FLAG-SPOP [11]): binds | endogenous KPNA5 (293T) (from UniProt O15131 1-539)
 | binding [7]: binds | endogenous SPOP (LNCaP) (from UniProt O43791 1-374)
no binding |  | Myc-SPOP F133V (from UniProt O43791 1-374)
